Out of some 48,000 compounds screened, about 550 (1.1%) were called active. Not shown: some 4% with an inconclusive outcome. Rule as the data show it: active = potency below about 15 µM; inconclusive = mostly about 16 µM to 33 µM; inactive = weaker than that. This is one part of the list.
Each compound was assayed against Lysosomal acid glucosylceramidase (Homo sapiens) (UniProt P04062) (assay: Glucocerebrosidase). Settings: purified enzyme, resorufin glucoside fluorescence (screen aimed at inhibitors), 20 min.
UniProt P04062, sequence (P04062 whole entry, looked up): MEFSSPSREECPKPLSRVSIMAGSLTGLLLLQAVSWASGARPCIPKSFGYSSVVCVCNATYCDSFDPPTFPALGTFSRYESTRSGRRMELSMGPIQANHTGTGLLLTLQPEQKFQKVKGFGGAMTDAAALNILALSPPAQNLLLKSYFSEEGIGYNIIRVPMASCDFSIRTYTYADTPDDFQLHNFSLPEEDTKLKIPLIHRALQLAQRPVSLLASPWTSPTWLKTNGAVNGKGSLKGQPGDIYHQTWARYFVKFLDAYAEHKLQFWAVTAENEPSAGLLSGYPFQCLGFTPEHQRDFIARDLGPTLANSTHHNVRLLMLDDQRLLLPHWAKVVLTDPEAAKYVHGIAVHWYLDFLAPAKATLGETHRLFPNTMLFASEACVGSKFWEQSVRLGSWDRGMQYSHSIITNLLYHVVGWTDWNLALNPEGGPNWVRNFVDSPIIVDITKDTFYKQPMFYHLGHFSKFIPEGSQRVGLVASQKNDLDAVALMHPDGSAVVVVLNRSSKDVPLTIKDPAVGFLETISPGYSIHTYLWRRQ
Outline: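 Compounds titrated against 0.2 nM normal enzyme, 30 uM resorufin beta-D-glucopyranoside substrate, citrate/phosphate buffer with taurocholate and tween-20, pH 5.9. Reaction ran 20 min at room temperature; fluorescence (Ex 548/Em 600) gave AC50.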
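Also: the screen sought inhibitors.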
Potency is read from the fitted curve at half-maximal effect.

Potency, inactive:
CCC(c1nnc(SCC(=O)N2CC(=O)Nc3ccccc32)n1Cc1ccccc1)N(C)C (stereo not drawn) > 76.9 µM
COc1ccc2c(=O)c(N3C(=O)c4ccccc4C3=O)coc2c1 > 76.9 µM
CC(C)C(=O)Nc1nnn(C)n1 > 76.9 µM
O=C(CCS(=O)(=O)c1ccc(Br)s1)NCc1ccc2c(c1)OCO2 > 76.9 µM
Cc1nn(CCC(=O)O)c2nc(-c3cccnc3)cc(C(F)(F)F)c12 > 76.9 µM
CCOC(=O)C1CCCCN1Cc1ccc(OC)c(OC)c1OC (stereo not drawn) > 76.9 µM
Cn1c(=O)cc(SCC(=O)N2CCOCC2)c2ccc(Cl)cc21 > 76.9 µM
O=S(=O)(Nc1ncccn1)c1ccc(Nc2ncnc3ccccc23)cc1 > 76.9 µM
Cc1ccc(-n2c(SCC(=O)Nc3nccs3)nc3c(c2=O)SCC3)cc1 > 76.9 µM
Cc1ccc(-c2nnn(CCC(=O)N3CCCCC3C)n2)cc1 (stereo not drawn) > 76.9 µM
Cc1c(C(=O)NCCCN2CCOCC2)sc2ncnc(N3CCN(c4ccccc4)CC3)c12 > 76.9 µM
CC(=O)N1CCc2cc(S(=O)(=O)NC(CC(C)C)C(=O)Nc3cc(C(=O)O)ccc3C)ccc21 (stereo not drawn) > 76.9 µM
CCOC(=O)N1CCN(C(=O)Cn2cc3c(n2)CCCC3)CC1 > 76.9 µM
Cc1ccc(S(=O)(=O)CCC(=O)OCC(=O)Nc2cc(C)on2)cc1 > 76.9 µM
CCSc1nc2c(c(=O)n(C)c(=O)n2C)n1Cc1ccc(Cl)cc1 > 76.9 µM
Cc1ccccc1Cc1c(C)nc2c(C(=O)N3CCN(Cc4ccc5c(c4)OCO5)CC3)cnn2c1C > 76.9 µM
CC(=O)Nc1ccc(S(=O)(=O)NCC2CCC(C(=O)N3CCCCCC3)CC2)cc1 (stereo not drawn) > 76.9 µM
O=C(c1cccnc1NCc1ccccc1)N1CCOCC1 > 76.9 µM
CCc1nc(SCC(=O)Nc2ccc3c(c2)OCCO3)c2oc3ccccc3c2n1 > 76.9 µM
O=C1CCCN1c1cc(Cl)ccc1Cl > 76.9 µM
CCCCCCOc1ccc(C(CC(=O)O)C(N)=O)cc1 (stereo not drawn) > 76.9 µM
O=C(Nc1nccs1)c1cccc(NC(=O)C2CC2)c1 > 76.9 µM
Cn1c(=O)c2cc(S(=O)(=O)N3CCC(c4ccccc4)CC3)ccc2n(C)c1=O > 76.9 µM
CC(C)N(c1ccccc1)c1ccc(NC(=O)C2CCCO2)cc1 (stereo not drawn) > 76.9 µM
Cc1ccc(C(=O)CSc2nnc(COc3cccc(C)c3)o2)cc1 > 76.9 µM
O=C(NC1=NCCS1)c1ccncc1 > 76.9 µM
COCCNc1ncnc2c1cnn2Cc1ccc(Cl)cc1 > 76.9 µM
CC1CCOC2(O1)C(=O)N(CN1CCN(c3ccccc3F)CC1)c1ccccc12 (stereo not drawn) > 76.9 µM
O=C(c1ccc(Br)cc1)C1CCc2occc2C1=O (stereo not drawn) > 76.9 µM
Cc1ccc(NC(=O)Cn2nc(C)cc2C)cc1 > 76.9 µM
c1ccc(-c2nnc(Cn3c4ccccc4c4nc5ccccc5nc43)o2)cc1 > 76.9 µM
CN(C)C(=O)C12CCC(C)(c3nc4ccccc4nc31)C2(C)C (stereo not drawn) > 76.9 µM
O=C(CCC(=O)c1cccs1)OCc1nnc(-c2ccccc2)o1 > 76.9 µM
CC(CN1CCCCC1)OC(=O)c1ccccc1Cl (stereo not drawn) > 76.9 µM
Cn1c(CN2CCOCC2)nnc1SCC(=O)NCCc1ccccc1 > 76.9 µM
Cc1nc(CN2CCN(C(=O)NC3(c4ccccc4)CC3)CC2)cs1 > 76.9 µM
CNC(=O)C1CC(=O)N(Cc2ccc3c(c2)OCO3)C(=Nc2ccc(F)cc2)S1 (stereo not drawn) > 76.9 µM
CC1(C)N=C(/C=N/O)CN1O > 76.9 µM
Cc1ccc(C)c(NC(=O)c2nnn(Cc3ccccc3C)c2N)c1 > 76.9 µM
CC(C)(C)S(=O)(=O)c1c(C(=O)O)cccc1C(=O)O > 76.9 µM
CCCOc1ccc(/C(O)=C2/C(=O)C(=O)N(c3cc(C)on3)C2c2ccc(C(=O)OC)cc2)cc1 (stereo not drawn) > 76.9 µM
CCc1nnc(NC(=O)CSc2ncc(-c3ccccc3)n2C)s1
CC(C)C[C@H](N)c1nnc(S(=O)(=O)Cc2cccc(F)c2)o1 > 76.9 µM
COC(=O)CNC(=O)Cc1c(F)cccc1Cl > 76.9 µM
Cc1ccc(C(=O)Oc2ccc3c(c2)ncn3C)cc1 > 76.9 µM
O=C(c1ccc(F)cc1)N1CCC(O)(c2cccnc2)CC1 > 76.9 µM
Cc1ccc(C)c(N2CCN(C(=O)COc3cc(=O)n(C)c4ccccc34)CC2)c1 > 76.9 µM
O=C1CCCC2=C1C(c1c(Cl)nc3sccn13)C1=C(CCCC1=O)N2 > 76.9 µM
COC(=O)C1=C(C)Nc2ncnn2C1c1ccc(OCc2ccccc2)cc1 (stereo not drawn) > 76.9 µM
N#Cc1c(C(F)(F)F)cc(-c2ccccc2)nc1SCc1nc(N)nc(N2CCOCC2)n1 > 76.9 µM
Cc1ccccc1-n1nc2c(c1NC(=O)c1cc3ccccc3oc1=O)CS(=O)(=O)C2 > 76.9 µM
O=C(Nc1ccc(F)cc1)N1CCOCC1 > 76.9 µM
COCCn1c(-c2ccc(Cl)cc2)cnc1SCC(=O)NCc1cccs1 > 76.9 µM
O=C(CC1C(=O)NCCN1C(=O)Nc1ccccc1)Nc1ccc2c(c1)OCO2 (stereo not drawn) > 76.9 µM
Cc1c[nH]c2cccc(OCC(O)CNC(C)(C)C)c12 (stereo not drawn) > 76.9 µM
Cc1ccc(OCc2ccc(C(=O)Nc3nccs3)o2)cc1 > 76.9 µM
CCCOC(=O)c1[nH]c2c(c1C)C(=O)CC(c1ccc(OC)c(OC)c1)C2 (stereo not drawn) > 76.9 µM
CCc1ccc(NC(=O)CCNS(=O)(=O)c2cccc3nonc23)cc1 > 76.9 µM
